# Results reported in article PMC4336329 (PLoS ONE, 2015).
# Among all 310,000 compounds or so, about 2,200 (0.71%) showed an effect of 50% or more. Effects have a minus sign here. Some of the results follow.
# Target: human ether-à-go-go-related gene (hERG) potassium channel (human, UniProt Q12809)
# Test: primary screen, population patch clamp on CHO cells stably expressing hERG
# Sequence of human ether-à-go-go-related gene (hERG) potassium channel (Q12809 whole entry, looked up): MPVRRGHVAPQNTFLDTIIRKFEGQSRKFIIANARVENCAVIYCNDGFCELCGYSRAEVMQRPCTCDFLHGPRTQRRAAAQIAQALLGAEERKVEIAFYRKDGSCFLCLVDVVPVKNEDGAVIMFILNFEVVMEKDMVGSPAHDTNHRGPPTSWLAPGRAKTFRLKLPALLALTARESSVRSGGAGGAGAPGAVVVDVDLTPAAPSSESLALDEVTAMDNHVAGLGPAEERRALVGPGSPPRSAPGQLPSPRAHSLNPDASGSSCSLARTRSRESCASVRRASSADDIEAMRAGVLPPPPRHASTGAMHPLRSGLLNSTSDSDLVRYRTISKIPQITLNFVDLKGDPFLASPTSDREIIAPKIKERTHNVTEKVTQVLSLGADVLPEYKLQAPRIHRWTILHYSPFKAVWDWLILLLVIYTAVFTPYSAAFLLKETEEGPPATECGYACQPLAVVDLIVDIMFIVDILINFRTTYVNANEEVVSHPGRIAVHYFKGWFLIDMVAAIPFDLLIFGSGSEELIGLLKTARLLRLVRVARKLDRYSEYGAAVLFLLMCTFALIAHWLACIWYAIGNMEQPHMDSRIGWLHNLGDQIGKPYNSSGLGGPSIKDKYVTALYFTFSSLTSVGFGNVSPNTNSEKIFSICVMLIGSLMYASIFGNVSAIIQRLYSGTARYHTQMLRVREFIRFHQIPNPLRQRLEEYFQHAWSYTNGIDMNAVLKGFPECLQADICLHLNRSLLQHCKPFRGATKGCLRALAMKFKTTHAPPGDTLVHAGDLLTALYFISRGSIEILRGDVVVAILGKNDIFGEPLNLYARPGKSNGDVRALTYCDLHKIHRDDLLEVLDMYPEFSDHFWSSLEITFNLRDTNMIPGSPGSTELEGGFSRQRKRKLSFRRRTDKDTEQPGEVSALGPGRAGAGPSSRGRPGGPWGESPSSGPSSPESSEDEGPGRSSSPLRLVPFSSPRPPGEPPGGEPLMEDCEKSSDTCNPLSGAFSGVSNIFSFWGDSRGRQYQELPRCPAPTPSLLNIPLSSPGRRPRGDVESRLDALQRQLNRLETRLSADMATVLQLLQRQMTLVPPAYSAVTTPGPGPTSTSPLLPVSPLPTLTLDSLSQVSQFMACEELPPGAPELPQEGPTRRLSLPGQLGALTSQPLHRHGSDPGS
row,Structure (SMILES),"hERG current change (%, negative = inhibition) at 1uM [%]"
1,CN(C)S(=O)(=O)c1cccc(NC(=O)CSc2nncn2-c2ccccc2)c1,1.2
2,COc1ccc(N2CCN(S(=O)(=O)c3ccc4c(c3)NC(=O)C(C)C(=O)N4)CC2)cc1 (centres unmarked),14.2
3,Cc1nn(-c2ccccc2)c2[nH]c(C(F)(F)F)cc(=O)c12,-11
4,Cc1nn(CC(=O)Nc2ccc(C(=O)N3CCCCC3)cc2)c(=O)c2ccccc12,3.97
5,CC1CC(CC(C)C(=O)NC(=S)Nc2ccc(S(N)(=O)=O)cc2)C(=O)O1 (centres unmarked),12.1
6,COc1cc(C2C(C#N)=C(N)Oc3cc(O)ccc32)cc2c1OCO2 (centres unmarked),-4.94
7,COCCNC(=S)N/N=C/c1c(C)[nH]c2ccccc12,-0.83
8,O=C(COn1nnc2ccc(C(F)(F)F)cc21)Nc1nnc(-c2ccccc2)o1,-10.6
9,Cc1ccccc1NS(=O)(=O)c1ccc(C(=O)N2CCCCCC2)cc1,-0.454
10,O=C(COC(=O)/C=C/c1ccccc1[N+](=O)[O-])Nc1ccc(OCc2ccccc2)cc1,14
11,CCN(CC(=O)Nc1c(F)cccc1F)C(=O)C1CCN(C(=O)c2ccc(Cl)cc2)CC1,14
12,COc1ccc(OC)c(NC(=O)CCCNC(=O)Cn2cnc3sc(C)c(C)c3c2=O)c1,13.4
13,CCCOc1ccc2c(c1)C(=NN=C(N)N)c1cc(OCCC)ccc1-2.Cl,18.3
14,Cc1oc(-c2ccccc2)nc1CSc1nc2c(c(=O)[nH]1)CCC2,3.64
15,CCOCCCNC(=S)NCCNc1nc2c(C)cccc2cc1C#N,6.67
16,COc1cc(C2=NC(CO)(CO)CO2)cc(OC)c1OC,3.46
17,COc1ccccc1N1CCN(S(=O)(=O)CCNC(=O)C2CCCC2)CC1,1.09
18,CCCCCCN1C=CC=C/C1=C\C=C(C#N)C#N,-69.9
19,O=C1CN=C(Nc2ccccc2Cl)N1c1ccccc1,7.15
20,COC(=O)c1ccc(NC(=O)c2ccccc2-c2ccccc2C(=O)O)cc1,-0.709
21,Clc1cnc2nc(SC/C=C/c3ccccc3)[nH]c2c1,13.9
22,CC1CCC2(CC1)NC(=O)N(CC(=O)Nc1ccc(F)cc1)C2=O (centres unmarked),7.67
23,O=C(NCCCN1CCCC1=O)c1cccc(S(=O)(=O)Nc2ccccc2Cl)c1,14.5

row,Structure (SMILES),"hERG current change (%, negative = inhibition) at 1uM [%]"
1,O=C(c1cc2c(=O)oc3ccccc3c2s1)N1CCOCC1,9.75
2,CC(=O)NC1=NN(C(C)=O)C(C)(CC(=O)OC(C)(C)C)S1 (centres unmarked),10.3
3,CCCN1C(=O)c2ccccc2NC1c1ccc(Cl)cc1 (centres unmarked),10.4
4,N=c1ncn(Cc2ccccc2)c2nc(SCCOc3ccccc3)[nH]c12,5.42
5,CCOc1ccccc1C(=O)N1CCCCC1C (centres unmarked),23.7
6,Cc1ccc(NC(=S)Nc2ccc3[nH]c(=O)[nH]c3c2)cc1C,16
7,Cc1sc(NC(=O)c2ccccc2)c(C(=O)c2ccccc2)c1C,-1.45
8,Cc1cc2c(s1)CCCCC(=O)N2,14.4
9,CC1CCCN(Cc2c(C(=O)N3CCc4ccccc4C3)nc3ccc(Cl)cn23)C1 (centres unmarked),3.44
10,Cc1ccc(-c2csc3nc4cc(C(N)=O)ccc4c(=O)n23)cc1,-2.01
11,Cc1nnc(NC(=O)CSc2nnc(Cc3cccn3C)n2-c2ccccc2)s1,9.39
12,Cc1cc2nc(C(C)(C)C)cc(N)n2n1,1.9
13,CC1(C)N=C(/C=N/O)C=[N+]1[O-],20.9
14,COc1ccc(S(=O)(=O)Nc2c(C)n(C)n(-c3ccccc3)c2=O)cc1C(=O)O,8.32
15,O=C(Nc1cc(Br)ccc1O)C1CC(c2ccccc2Cl)=NO1 (centres unmarked),18.5
16,Cc1occc1-c1nnc(SCC(=O)N2CCOCC2)o1,12.7
17,CC1(C)CC(=O)C=C(Nc2ccc(Br)cc2F)C1,10.5
18,COc1ccc(NC(=O)c2sccc2C)c([N+](=O)[O-])c1,15
19,Cc1cccc(OCC(=O)NCC(=O)N/N=C/c2c(C)[nH]c3ccccc23)c1,4.8
20,COCC(=O)Nc1nnc(SCC(=O)NCc2cccs2)s1,11.1
21,NC(=S)N/N=C/c1ccccc1OC(=O)/C=C/c1ccccc1,11.4
22,COc1ccc(-c2noc(CNC(=O)c3ccc4c(c3)OCO4)n2)cc1OC,13.6
23,Cc1ccc(C)c(NC(=O)CN(C)C(=O)c2ccncc2)c1,8.43

row,Structure (SMILES),"hERG current change (%, negative = inhibition) at 1uM [%]"
1,COC(=O)c1cccc(NC(=O)CSc2nnc(C)n2Cc2ccccc2)c1,0.797
2,Cc1nn(CC(C)C)c(=S)[nH]c1=O,5.82
3,CCOC(=O)/C(=N/Nc1ccccc1)Sc1nnnn1-c1ccc(C)cc1,-4.06
4,CCOC(=O)COc1cc(Br)c(C2NC(=O)NC(C)=C2C(C)=O)cc1OCC (centres unmarked),12.4
5,COc1cc(NS(=O)(=O)c2ccc(NC(=O)/C=C/c3cccc([N+](=O)[O-])c3)cc2)ncn1,9.11
6,Cc1ccc(-c2nc3ccccc3c(=O)n2NC(=O)c2cccs2)cc1,8.81
7,O=C1/C(=C\Nc2ccccc2)CCN1c1ncccn1,12.7
8,Cc1cc2nc(C)c3c(n2n1)CCC3,9.49
9,CCCC(C(=O)NCCC(C)C)N(Cc1ccccc1Cl)C(=O)c1snc(C(N)=O)c1N (centres unmarked),13.8
10,CCN(CC)CCN1C(=O)C(=O)/C(=C(/O)c2c(C)[nH]c(C(=O)OC)c2C)C1c1cccc(OC)c1 (centres unmarked),-5.96
11,O=C(Nc1ccc(Cl)cn1)C1COc2ccccc2O1 (centres unmarked),-1.26
12,O=c1[nH]c(=S)n(C2CC2)c(O)c1/C=N/Nc1cccc2ccccc12,9.98
13,CCc1ccc(C(O)(c2ccccc2OC)C(CN2CCOCC2)c2ccccc2)cc1.Cl (centres unmarked),-6.35
14,O=C(c1coc(=O)c2ccccc12)N1CCN(Cc2ccccc2)CC1,-12.2
15,CCOC(=O)c1sc2nc(C)cc(C)c2c1N,-0.853
16,Cc1ccc(CCNC(=O)c2nn(C)c3c2CS(=O)(=O)c2ccccc2-3)cc1,4.49
17,CCC(Sc1ccc(Cl)cc1)C(=O)Nc1nnc(-c2cccc([N+](=O)[O-])c2)s1 (centres unmarked),11.3
18,COc1ccc(OC)c(S(=O)(=O)Nc2cc3c(cc2N2CCCC2)n(C)c(=O)c(=O)n3C)c1,0.155
19,CC(C)(C)NC(=O)C(c1ccsc1)N(CCc1ccccc1)C(=O)Cn1nnc2ccccc21 (centres unmarked),14.4
20,COC(=O)C(CCSC)NC(=O)CNS(=O)(=O)c1ccc(Br)cc1 (centres unmarked),-4.14
21,CCCc1cc(=O)c2c(O)ccc(OC)c2o1,10
22,Fc1cccc2sc(Nc3nc4cc5c(cc4s3)OCO5)nc12,23
23,NC(=O)C1CCN(C(=O)COc2ccc3ccc(=O)oc3c2)CC1,11.9

row,Structure (SMILES),"hERG current change (%, negative = inhibition) at 1uM [%]"
1,COCCCn1c(=N)c(C(=O)NCc2ccc3c(c2)OCO3)cc2c(=O)n3ccccc3nc21,-87.4
2,Cc1ccc(-c2noc(CCC(=O)NCCN3CCOCC3)n2)cc1,3.09
3,COC(=O)c1sccc1NC(=O)c1c(C)cc(=O)oc1C,-1.68
4,FC(F)(F)c1ccc(Cl)c(NC2=NCCCCC2)c1,16.7
5,COc1ccc(CCNC(=O)CSCc2ccc(Br)cc2)cc1OC,12.6
6,CCOc1ccc(NC(=O)c2ccc(F)c(S(=O)(=O)N3CCN(c4ccccn4)CC3)c2)cc1,11.2
7,COC(=O)C1=CN(C(C)c2ccccc2)C=C(C(=O)OC)C1c1cc(OC)c(OC)c(OC)c1 (centres unmarked),5.47
8,O=C(Nc1cccnc1)c1ccco1,12.5
9,CCOC(=O)c1c(NC(=O)CC2SC(N)=NC2=O)sc2c1CCCC2 (centres unmarked),-5.26
10,CC(Sc1ccsc1[N+](=O)[O-])C(=O)N1CCN(c2ccccn2)CC1 (centres unmarked),9.12
11,C=CCN(c1ccccc1)S(=O)(=O)c1cccc(C(=O)NNC(=O)c2ccccc2O)c1,0.358
12,COC(=O)CNC(=O)c1sc2ncn(CC(=O)Nc3ccc(C)c(Cl)c3)c(=O)c2c1C,13.1
13,COc1ccc(NS(=O)(=O)N2CCOCC2)cc1,10.8
14,NNC(=O)CC12CC3CC(C1)CC(n1ncnn1)(C3)C2,9.41
15,CCOC(=O)c1[nH]c2ccc(F)cc2c1NC(=O)CCN1CCOCC1,14.9
16,CCN(Cc1nc(-c2ccc(OC)c(OC)c2)no1)C(=O)c1ccc2c(c1)OCO2,15.3
17,COc1ccc(N2CCN(CC(=O)Nc3ccc(-n4cnnn4)cc3)CC2)cc1,12.7
18,O=C(NNC(=O)c1cc2ccccc2cc1O)c1cccs1,11.9
19,Cc1ccccc1OCCNc1ccc(C(F)(F)F)cc1[N+](=O)[O-],11.6
20,O=S(=O)(Nc1cc(S(=O)(=O)N2CCOCC2)ccc1NCC1CCCO1)c1ccc(F)cc1 (centres unmarked),6.07
